Reference: PubChem BioAssay AID1508624 (National Center for Advancing Translational Sciences (NCATS), 2021)
The whole screen tested about 48,000 compounds, of which about 120 (0.25%) were called active. Another 4% or so got no clear call; they are omitted. The call rests on the fitted dose curve; in most records, active means well fitted activation curve with a large enough effect; inconclusive means small, poorly fitted or top-dose-only effect, or another doubt; inactive means no such curve, though single readings can be large or run the other way. The list shows a part of the results.

Assay: Primary qHTS for Identification of Small Molecule Activators of Huntingtin-Antisense Promoter Activity; further: nearly all actives have a fitted effect of over 55% in size
Conditions: HEK293 HTT-AS promoter firefly luciferase reporter, 24 h; series mostly up to 57.5 µM; activity change, positive = activation: at the top concentration
How it was run: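 HEK293 luciferase promoter-reporter cells (2,500/well) plated 24 h, then compounds added at up to 57.5 uM final for 24 h at 37 °C. Firefly luminescence by Dual-Glo, normalized to vehicle (0%) and zero RLU (-100%).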

Activity change, positive = activation, inactive:
O=C(O)c1ccc(Cn2c(SCc3ccc(F)cc3)nc3ccncc32)cc1 0.121%
COCCNc1ccc2cc(S(=O)(=O)N3CCCCC3)ccc2n1 -9.89%
Cc1ccc2nc(NC(=O)CSc3nccn3Cc3ccc(F)cc3)sc2c1 -12.9%
CCc1ccc(NS(=O)(=O)c2[nH]ncc2C(=O)OC)cc1 -6.66%
Cc1ccccc1Cn1c(=O)n(-c2ccc(Cl)cc2)c(=O)c2c3c(sc21)CCCC3 -4.27%
CC(C)NC(=O)CN1C(=O)CCn2nc(-c3cn(C)c4ccccc34)cc21 4.33%
COc1ccc(Cn2c(C(=O)O)c(CNCc3ccc(SC)cc3)c3ccc(OC)cc32)cc1 -57.9%
COc1ccc(OC)c(S(=O)(=O)NCC(c2cccs2)S(=O)(=O)c2ccc(F)cc2)c1 (stereo unspecified) -32.7%
Cc1ccccc1NC(=O)c1sc2nc3c(cc2c1N)CN(Cc1ccccc1)CC3 -29.3%
CCCS(=O)(=O)N1CCC(C(=O)NCCOC)CC1 -10.3%
Cc1cc(F)ccc1NC(=O)C1CCC(CNS(=O)(=O)c2ccc3c(c2)CCCC(=O)N3)CC1 (stereo unspecified) -29.4%
COc1cccc(N2CCN(C(=O)CN3CCSc4ccccc43)CC2)c1 -30.3%
Clc1ccc(Nc2c(-c3ccccc3Cl)nc3ccc(Cl)cn23)cc1 -39.3%
COc1ccc(C)cc1NC(=O)c1cc(S(=O)(=O)N2CCN(c3cccc(C)c3C)CC2)ccc1F -8.03%
Cc1c(C(=O)Nc2ccccc2Cl)oc2ccc(S(=O)(=O)N3CCCCC3)cc12 -1.36%
CCCn1c2ccc(F)cc2c2nnc(SCCN(CC)CC)nc21 -19.3%
Cc1ccc(C(=O)Nc2cccc(C(=O)OCc3cc(=O)n4nc(C5CC5)sc4n3)c2)cc1 18.6%
CCCOc1ccc(C2CC(=O)Nc3c2c(=O)n(C)c(=O)n3C)cc1OC (stereo unspecified) -11.7%
CCOc1ccc(N2CC(NC(=O)C3CC3)CC2=O)cc1 (stereo unspecified) -15.5%
COc1ccc(-n2nc(C(=O)NCc3ccc(F)cc3Cl)c3c4ccccc4n(C)c3c2=O)cc1Cl -3.79%
CCCCN(CC)CCCNC(=O)Cn1ncc2c3ccccc3n(Cc3ccc(F)cc3)c2c1=O -6.59%
Cn1c(=O)c(=O)n(C)c2cc(S(=O)(=O)N3CCN(c4ccccc4)CC3)ccc21 -8.36%
Cc1cccc(C(=O)Oc2c(Sc3ccccc3)c(C)nn2C(C)(C)C)c1 -26.4%
CC(NC(=O)c1ccc2c(c1)sc1nc(-c3ccccc3)cn12)C12CC3CC(CC(C3)C1)C2 (stereo unspecified) -7.31%
CCOC(=O)c1c(S(=O)(=O)N2CCCC(C(=O)NCc3ccccc3OC)C2)c(C)n(C)c1C (stereo unspecified) -6.01%
CCc1nc(SC)ncc1C(=O)N1CCN(c2cc(C)ccc2C)CC1 -35.9%
Cc1ccc(NC(=O)c2ccc(=O)n(Cc3ccccc3C)c2)c(C)c1 -22.6%
Cc1ccc(CN2CCCn3nc(C(=O)NCCc4cccc(C)c4)cc3C2=O)cc1 -9.66%
Cc1ccc(-c2nc(N3CCCC(C)C3)c3ccccc3n2)cc1 (stereo unspecified) -3.12%
CCc1ccccc1NC(=O)CSc1nc2c(oc3ccccc32)c(=O)n1C -10.3%
NC(=O)C1CCN(S(=O)(=O)c2ccc(N3CCCCS3(=O)=O)cc2)CC1 1.24%
COc1cccc(CNC(=O)C2CCCN(c3nc4ccccc4n4cccc34)C2)c1 (stereo unspecified) -7.57%
Cc1nn(C)c2c1c(-c1ccccc1)cc(=O)n2CC(=O)NC(C)C -9.35%
Cc1ccc(CN2CCCn3nc(C(=O)NCCc4ccccc4Cl)cc3C2=O)cc1 9.67%
COc1ccc(CCNCc2ccc3c(c2)n(C)c(=O)n3C)cc1OC -15.2%
Cc1ccc(CNC(=O)c2ccc3c(O)c(S(=O)(=O)c4ccc(Cl)cc4)c(=O)[nH]c3c2)cc1 -6.5%
CCOc1ccccc1NC(=O)C1=C(C)Nc2ncnn2C1c1ccc(C)o1 (stereo unspecified) -14.8%
COc1ccc(-c2nc(CCNC(=O)c3ccc(Br)o3)cs2)cc1 -24.5%
O=[N+]([O-])c1cc(-c2nc(-c3ccccc3)no2)ccc1N1CCOCC1 -17.6%
CCc1ccccc1NC(=O)Cn1c(SCc2ccc(F)cc2)nc2ccncc21 -1.84%
CCc1cccc(CC)c1NC(=O)CCS(=O)(=O)c1ccc2c(c1)CCN2C(C)=O -6.57%
COc1ccc(-c2nc(CNS(=O)(=O)c3cccc(F)c3)cs2)cc1 -30.2%
O=C(CCCn1c(=O)c2cccn2c2ccccc21)NCc1ccccc1Br -8.89%
COc1cc(C(C)C)c2c(c1)S(=O)(=O)N(COc1cc(=O)n3cccc(OCCN4CCCCC4)c3n1)C2=O -28.1%
Cc1ccc(Nc2sc(C(=O)c3ccccc3)c(N)c2C(N)=O)cc1 -7.93%
CC1CCN(C(=O)C2COc3ccccc3C2)CC1 (stereo unspecified) 32%
COc1ccc(S(=O)(=O)NCc2nc3nc(C)cc(C)n3n2)cc1OC -7.55%
COc1ccc(Nc2c3c(nc4nncn24)CCC3)cc1OC -27.4%
COc1ccc(CNC(=O)CSc2c3c(nc4ccc(Cl)cc24)CCCC3)cc1 -35.9%
CCc1nn(CC(=O)Nc2ccc(NC(C)=O)cc2)c(=O)c2cc3sccc3n12 -7.94%
O=C(Cn1cnc2onc(-c3ccc(Cl)cc3)c2c1=O)Nc1ccc(F)cc1 -0.29%
COCCNC(=O)CN1C(=O)c2cccnc2Oc2ccc(Cl)cc21 -3.31%
CN(C)CCN(Cc1ccsc1)c1ccccn1 -4.24%
Cc1ccc(S(=O)(=O)N(CCc2ccccc2)CC(=O)Nc2ccc(Br)cc2)cc1 -25.6%
CCOC(=O)c1ccc(N2C(=O)c3n[nH]c(-c4ccco4)c3C2c2cccc(O)c2)cc1 (stereo unspecified) -50%
COc1cccc(NC(=O)CSC2=Nc3ccccc3C3=NC(CC(=O)NCc4ccc5c(c4)OCO5)C(=O)N23)c1 (stereo unspecified) -6.16%
COc1ccc(C)cc1NC(=O)Nc1ccccc1OCc1cc(=O)n2ccccc2n1 -37.4%
CCCCNC(=O)c1cnc2sc(N3CCCCCC3)nn2c1=O -8.46%
Cc1cc(C)c(NC(=O)C(=O)NCC(c2cccnc2)N2CCN(Cc3ccccc3)CC2)c(C)c1 (stereo unspecified) -12.7%
Cc1ccccc1-c1noc(-c2ccc(N3CCN(C)CC3)c([N+](=O)[O-])c2)n1 -69.7%
COc1ccc2c(c1)c1c(c(=O)n(-c3ccccc3)c(=O)n1CC(=O)NCc1ccc(C)cc1)n2C -7.11%
CSc1nn(Cc2cccc(Cl)c2)c(N(C(C)=O)C(C)=O)c1S(=O)(=O)c1ccccc1 -38.8%
COc1ccc(CC(=O)N(Cc2nc(-c3ccc(C)cc3)no2)C(C)C)cc1 -26%
O=C(CSc1nc2nccnc2c(=O)n1CCc1c[nH]c2ccccc12)Nc1ccc(F)cc1 -31.5%
Cc1ccc(NC(=O)c2ccc(CNS(=O)(=O)c3ccc4c(c3)C(C)(C)C(=O)N4C)cc2)cc1F -45%
CCCCOc1ccccc1C(=O)N(Cc1cccc(F)c1)C1CCS(=O)(=O)C1 (stereo unspecified) -15.7%
CCOc1ccc(CCNC(=O)CSc2nnnn2-c2ccc(C)cc2C)cc1OCC -23.9%
CCOC(=O)C1=C(CN(C)Cc2ccccc2)NC(=O)NC1c1ccc(OC)cc1 (stereo unspecified) -24%
O=C(NCC(c1cccnc1)N1CCc2ccccc21)c1ccc(F)cc1 (stereo unspecified) -33.6%
CCOc1ccc(NC(=O)N(C)CCc2c(C)nn(C)c2C)cc1 6.44%
CN(C)c1ccc(NC(=O)CSc2nc3ccsc3c(=O)n2CCCCCC(=O)O)cc1 -9.37%
COc1cc(OC)c(NC(=O)C(Cc2ccccc2)NS(=O)(=O)c2cccc3nsnc23)cc1Cl (stereo unspecified) -15.4%
Cc1c(C(=O)N(Cc2ccco2)Cc2ccccc2Cl)oc2ccc(F)cc12 -33.3%
COc1ccc(OC(C)C(=O)NCc2nc(-c3cccc(C)c3)no2)cc1 (stereo unspecified) 8.8% [at 11.5 µM, percent change from vehicle, -100% = no light]
CC(=O)c1cccc(NC(=O)Cc2noc3ccccc23)c1 4.3%
CC(C)CCNC(=O)CN1C(=O)c2cccnc2Sc2ccccc21 -6.15%
COc1ccc(CC(=O)Nc2cc(-c3cn4cccnc4n3)ccc2OC)cc1 -10.4%
O=C(Nc1ccc2nc(SCCOc3ccccc3Cl)sc2c1)c1ccc2c(c1)OCO2 -35.6%
CCCCC(=O)NC1(C(F)(F)F)C(=O)Nc2c1c(=O)[nH]c(=O)n2-c1ccc(C)c(C)c1 (stereo unspecified) -3.31%
Cc1ccc(S(=O)(=O)NCc2ccc(C(=O)NCCc3cccc(C)c3)cc2)cc1 -9.48%
COc1ccc(S(=O)(=O)N(Cc2nc(-c3ccc(Cl)cc3)no2)C2CCCCC2)cc1 -35.4%
N#Cc1c(C(F)(F)F)cc(-c2cccs2)nc1SCC(=O)Nc1cccc(C(F)(F)F)c1 -48.1%
O=C(c1ccccc1Br)N1CCC(c2nc3ccccc3o2)CC1 -21%
Cc1ccc(Cn2c(=O)n(-c3cc(C)cc(C)c3)c(=O)c3oc4ccccc4c32)cc1 -20.4%
O=S(=O)(c1ccc(-n2cnnn2)cc1)N1CCN(c2cccc(C(F)(F)F)c2)CC1 -13%
Cc1oc(C)c2c(=O)cc(-c3ccc4c(c3)OCO4)cc(OC(=O)c3cccc(Cl)c3)c12 -24.2%
COc1cc(C(=O)N(Cc2cccnc2)c2nc3cc(C)c(C)cc3s2)cc(OC)c1OC -23.2%
COc1cc(Cl)c(C)cc1NC(=O)c1sc2nc(C)cc(C)c2c1N -0.488%
Cc1ccsc1CN(C(=O)COc1cccc(C)c1C)C1CCS(=O)(=O)C1 (stereo unspecified) -18%
CN1C(=O)C(C)(C)c2cc(S(=O)(=O)N3CCCC3C(=O)Nc3ccc(F)cc3)ccc21 (stereo unspecified) -31.2%
CCOC(=O)COc1ccc(F)cc1C(=O)c1ccn2nc(-c3ccc(C)cc3)cc2n1 -9.69%
COc1ccccc1NC(=O)C(Cc1ccccc1)NS(=O)(=O)c1cccc2nsnc12 (stereo unspecified) -3.63%
CCCCOC(=O)c1cccc(NC(=O)/C=C/c2ccccc2Cl)c1 -43.1%
Nc1ccccc1NC(=O)c1ccc(CNc2nccc(-c3cccnc3)n2)cc1 -13.4%
COC(=O)c1ccc(Cl)cc1NC(=O)N(Cc1ccc(OC)cc1)C1CCN(C(C)=O)CC1 -15.9%
COc1ccc(OC)c(NC(=O)CSc2nc3ccccc3c(=O)n2CCC(=O)NC2CCCCC2)c1 1.64%
